Some of the results follow.
B1: chr17:48622902:48623135:-|CDS|ENSG00000170689|control|control|control (ssRNA)
RNA: GGGAGUUCUACAGUCCGACGAUCUACCAGACGCUGGAGCUAGAGAAGGAGUUUCUGUUCAAUAUGUACCUCACCAGGGACCGUAGGCACGAAGUGGCCAGACUCCUCAAUCUGAGUGAGAGACAAGUCAAAAUCUGGUUUCAGCAACAGAGGAUUGAGCAUCA
B2: chr10:74136666:74136778:-|CDS|ENSG00000185009|unk|FALSE|unique (ssRNA)
RNA: GGGAGUUCUACAGUCCGACGAUCUUCAGAGGCUGCAAUUAAGGAUAAUGUGGUCAUAGUAUAUGAACUCUUAGAAGAAAUGUUAGACAAUGGAUUUCCACUGGCUACCGAAUCUAACAUUUUGAAAGAAUUGAUUAAACCACCCAACAGAGGAUUGAGCAUCA
B3: chr20:35276351:35277713:-|three_prime_utr|ENSG00000126005|control|control|control (ssRNA)
RNA: GGGAGUUCUACAGUCCGACGAUCCUCCUCUCCCCACGUCCCUGCGUCUCUUACACCCCCUCCCACCCGAGGCUCCCCAGAGAUAGCAGAGAAUUCGAAGAGGUCGCCGGGGACUGGAAAGAAGUCCCGGCAGGGCCGCCUUCGCAACAGAGGAUUGAGCAUCA
B4: chr3:27376575:27376676:-|3pUTR|ENSG00000033867|msi1|FALSE|bound_elsewhere (ssRNA)
RNA: GGGAGUUCUACAGUCCGACGAUCCUAUAUAUAAGAAUAUUGUAUGUCAUGCUGUUUAUGUGUGACUACCGGGUUUUUAAAAGUAGUGUCUGGAGUUUGUAAUGAGCACCGUGGAGACUAUGUAUUUAAUGAAAUGCUCUCUUUCAACAGAGGAUUGAGCAUCA
B5: ENSG00000124766:be:win_551|CDS|ENSG00000124766|bound_else_gene|NA|bound_elsewhere_windowed (ssRNA)
RNA: GGGAGUUCUACAGUCCGACGAUCCGAGUGGCGGCGGCGCCAACUCCAAACCGGCGCAGAAAAAGAGCUGCGGCUCCAAAGUGGCGGGCGGCGCGGGCGGUGGGGUUAGCAAACCGCACGCCAAGCUCAUCCUGGCAGGCGGCGCAACAGAGGAUUGAGCAUCA
B6: chr19:36448979:36450001:-|CDS|ENSG00000186017|control|control|control (ssRNA)
RNA: GGGAGUUCUACAGUCCGACGAUCCAGAGUUCACAGCUUAUUAGUCAUCAUAGAAUUCAUACUAGUGAGAAACCCUAUGAAUAUAGGGAAUGUGGAAAGAACUUUAAUUAUGACCCACAACUUAUUCAGCAUCAAAAUUUGUACCAACAGAGGAUUGAGCAUCA
B7: chr22:29695108:29695209:+|3pUTR|ENSG00000186575|msi1|FALSE|unique (ssRNA)
RNA: GGGAGUUCUACAGUCCGACGAUCGUGUGUGUGUGUCUUGCACUCCAGAGCUGACCUCCACCGCCCAGCCUGGGAAGUCAUUGUAGGGAGUGAGACACUGAAGCCCUGAGAAGCCAGUGCCAUCAUCCCCACCCCGCCCAGGGUCAACAGAGGAUUGAGCAUCA
B8: chr15:83017406:83017507:-|3pUTR|ENSG00000064726|msi1|total|mutant (ssRNA)
RNA: GGGAGUUCUACAGUCCGACGAUCGGCCUAAUAAAAUGCCCAAGAAAAUAUUCAGUGCAUUUACCGAGAAGGAUAUUUUGCCGCCGUACCGUAAUGUGUUAUGCCGUACAGUUUUAAAGCUAUAAAUGGAAUUUUGUGUAAAUUCAACAGAGGAUUGAGCAUCA
B9: ENSG00000196876:stop:overlap|stop_codon|ENSG00000196876|stop_codon|NA|stop_codon (ssRNA)
RNA: GGGAGUUCUACAGUCCGACGAUCCAGAGGAAGGAAGAAGGGAAAGAGCCAAAAGACAAAAAGAGGUCAGAGAAUCCAAGUGUUAGAGGAGAACAAAAAUUCAGUAUUAUACAGAUCUAAAACUCGCAAGUGAAAGAUUGUUUACAACAGAGGAUUGAGCAUCA
B10: chr18:722677:722778:-|3pUTR|ENSG00000176105|msi1|total|mutant (ssRNA)
RNA: GGGAGUUCUACAGUCCGACGAUCCCGCGCCCAGCCUACAUUCACUUCUAAAGUCUAUGUAAUGGUGGUCAUUUUUUCCCUUUCCGAAUACAUUAAAUGGUUGAUUUGGGGAGGAAAACUUAUUCUGAAUAUUAACGGUGGUGACAACAGAGGAUUGAGCAUCA
B11: chr22:39522180:39522281:+|CDS|ENSG00000128272|msi1|total|mutant (ssRNA)
RNA: GGGAGUUCUACAGUCCGACGAUCGCUUACGUUGCCAUGAUCCCUCAGUGCAUAAAGGAGGAAGACACCCCUUCAGAUAAUGACCGUGGCAUCUGUAUGAGCCCAGAGUCCUAUCUGGGGUCUCCUCAGCACAGCCCCUCUACCCAACAGAGGAUUGAGCAUCA
B12: chr14:74942539:74942640:-|3pUTR|ENSG00000119630|msi1|FALSE|unique (ssRNA)
RNA: GGGAGUUCUACAGUCCGACGAUCGUGUAUUUAUUACCGUCACACUCUUCAGUGACUCCUGCUGGUACCUGCCCUCUAUUUAUUAGCCAACUGUUUCCCUGCUGAAUGCCUCGCUCCCUUCAAGACGAGGGGCAGGGAAGGACACAACAGAGGAUUGAGCAUCA
B13: chr20:56369402:56369507:-|3pUTR|ENSG00000087586|unk|total|mutant (ssRNA)
RNA: GGGAGUUCUACAGUCCGACGAUCAGAAGAGGCCAUGUGUCUCAGAGCUGUUAAGGGCUUAUUUUUUUAAAACAUUGGAGUCACCGCAUGUGUGUAAACUUUAAAUAUGCAAAUAAAUAAGUAUCUAUGUCUGUGUGGAGUGCUCAACAGAGGAUUGAGCAUCA
B14: chr9:37126384:37126485:+|CDS|ENSG00000147905|unk|FALSE|unique (ssRNA)
RNA: GGGAGUUCUACAGUCCGACGAUCUAUCGAGAUGAGUCAUCUAGUGAACUGAGUGUUGAUAGUGAGGUGGAAUUUCAACUCUAUAGCCAAAUUCAUUAUGCCCAAGAUCUUGAUGAUGUCAUCAGGGAGGAAGAGCAUGAAGAACAACAGAGGAUUGAGCAUCA
B15: chr1:231223762:231225466:-|three_prime_utr|ENSG00000143633|control|control|control (ssRNA)
RNA: GGGAGUUCUACAGUCCGACGAUCAUCUGGAUGAACCUACUGAUGAGUUCUGACAAGGACGCCUUGAAUGUAUGUGGUGUUGCUAGCCCAUUAGAGCGCUUCACUGUCUCUCAUUUAUCCUUGUCAAAGUAGGAUUUAGUAAACCAACAGAGGAUUGAGCAUCA
B16: ENSG00000070961:be:win_1251|CDS|ENSG00000070961|bound_else_gene|NA|bound_elsewhere_windowed (ssRNA)
RNA: GGGAGUUCUACAGUCCGACGAUCGAAGUUCUUCAUUAUUGGAGUUACAGUUUUAGUGGUCGCAGUGCCAGAAGGUCUUCCACUUGCAGUCACGAUCUCACUGGCUUAUUCAGUCAAAAAAAUGAUGAAAGAUAAUAACUUAGUCAACAGAGGAUUGAGCAUCA
B17: chr8:38210266:38210373:+|CDS|ENSG00000156735|unk|total|mutant (ssRNA)
RNA: GGGAGUUCUACAGUCCGACGAUCAAAAAUCAUACAUGUGCUGGAGAAGGUCCAGUAUCUUGAACAAGAAGCCGAAGAAUUUGCCGGAAAAAAGACAGACAAAGCAUACUGGCUUCUGGAAGAAAUGCUAACCAAGGAACUUUUCAACAGAGGAUUGAGCAUCA
B18: chr1:179105649:179105771:-|3pUTR|ENSG00000143322|msi1|FALSE|bound_elsewhere (ssRNA)
RNA: GGGAGUUCUACAGUCCGACGAUCAGAAAGGAAACCUUGAUUCUUACCAUUGCUGCUCCAAAGGAGGCCCAGGUUAAGAGGAUUAGAGGAGACACGCGGUGCUGGGCAUUCCUGGCAGGUGUUGGGUGAUCCCCGCAGUAUGUCCAACAGAGGAUUGAGCAUCA
B19: ENSG00000070961:be:win_901|CDS|ENSG00000070961|bound_else_gene|NA|bound_elsewhere_windowed (ssRNA)
RNA: GGGAGUUCUACAGUCCGACGAUCAAAGAUGAGAAGAAAAAGGAAAAGAAAAAUAAGAAACAAGAUGGAGCUAUUGAGAAUCGCAACAAAGCAAAAGCCCAGGAUGGUGCAGCCAUGGAAAUGCAGCCAUUGAAGAGUGAAGAACAACAGAGGAUUGAGCAUCA
B20: ENSG00000141367:stop:overlap|stop_codon|ENSG00000141367|stop_codon|NA|stop_codon (ssRNA)
RNA: GGGAGUUCUACAGUCCGACGAUCAAGUAAUUGCACUGAAAGCAAAAUCGUGUGGUGGGAGCUAUGCAGCUAUAUUCUGUAGAUAGGAAAGUGUCUCAGCCCAUUGAAGGACAUGCAGCUAGCUUUGCACAGUUUAAGAUGGAACAACAGAGGAUUGAGCAUCA
B21: chr1:173734013:173734119:+|CDS|ENSG00000076321|unk|FALSE|unique (ssRNA)
RNA: GGGAGUUCUACAGUCCGACGAUCCAUUGACGAGAGGGCUAUGGAAUUACUGAUUGACUUUGCGUAUACCUCCCAGAUAACAGUAGAAGAGGGCAAUGUUCAGACUCUUCUGCCAGCUGCUUGCCUCCUCCAGCUGGCAGAAAUCAACAGAGGAUUGAGCAUCA
B22: chr5:141515046:141515147:-|3pUTR|ENSG00000131504|msi1_unk|total|mutant (ssRNA)
RNA: GGGAGUUCUACAGUCCGACGAUCAAAAAGAGAGAGAGAGAGAGGUGUGAGGGACAAAAUGCAAACCUAUUUCCCUUGCCUCACCGGCUUCUGGGAUGUCAUCACCUCCAGUUUGUUGGUUUUGUUUCCAACUGUUAAUAAAGCCAACAGAGGAUUGAGCAUCA

What follows are binders tested against MSI1 full-length (mouse, UniProt Q61474 1-362) (assay: nsRBNS (natural sequence RNA bind-n-seq); RBNS binding buffer (assumed for nsRBNS): 25 mM Tris pH 7.5, 150 mM KCl, 3 mM MgCl2, 0.01% Triton X-100, 500 ug/ml BSA, 20 U/ml SUPERase-In, 4 C; UNK is unkempt and MSI1 is Musashi-1; names of the RNAs are library labels; protein concentration not given here; high values mean tight binding).
Chain of UniProt Q61474 (Q61474 whole entry): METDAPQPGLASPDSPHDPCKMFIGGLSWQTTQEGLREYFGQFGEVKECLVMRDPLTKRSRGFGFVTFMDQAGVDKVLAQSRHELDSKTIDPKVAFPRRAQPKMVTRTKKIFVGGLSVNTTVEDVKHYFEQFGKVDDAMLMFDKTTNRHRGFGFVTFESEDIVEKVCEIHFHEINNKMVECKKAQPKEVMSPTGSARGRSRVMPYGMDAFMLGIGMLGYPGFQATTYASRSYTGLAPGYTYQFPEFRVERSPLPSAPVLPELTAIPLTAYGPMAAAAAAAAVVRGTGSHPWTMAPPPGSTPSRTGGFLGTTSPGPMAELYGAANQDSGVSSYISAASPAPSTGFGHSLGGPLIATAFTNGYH
In the case of B1, the binding signal is reported as 0.411 enrichment R.
Binder B2 has a binding signal of 0.651 enrichment R.
For B3, the binding signal was 0.918 enrichment R.
Binder B4 has a binding signal of 0.444 enrichment R.
B5 gave a binding signal of 0.429 enrichment R.
B6 gave a binding signal of 4.15 enrichment R.
B7 was tested, and the binding signal was 0.488 enrichment R.
B8 showed a binding signal of 0.489 enrichment R.
In the case of B9, the binding signal is reported as 0.516 enrichment R.
B10 was tested, and the binding signal was 0.31 enrichment R.
For B11, the binding signal was 0.521 enrichment R.
B12 showed a binding signal of 0.552 enrichment R.
Binder B13 has a binding signal of 0.219 enrichment R.
Binder B14 has a binding signal of 0.431 enrichment R.
In the case of B15, the binding signal is reported as 0.632 enrichment R.
For B16, the binding signal was 1.02 enrichment R.
Binder B17 has a binding signal of 0.23 enrichment R.
B18 showed a binding signal of 0.504 enrichment R.
B19 showed a binding signal of 0.774 enrichment R.
Work on B20 yielded a binding signal of 4.84 enrichment R.
Work on B21 yielded a binding signal of 1.23 enrichment R.
B22 was tested, and the binding signal was 0.471 enrichment R.

From paper PMC12136788
